According to PubChem BioAssay AID686978 (National Center for Advancing Translational Sciences (NCATS), 2013):
Hit rate of the full screen: of about 420,000 compounds, about 64,000 (15%) were called active. Inconclusive results, whose numbers are uncertain, are shown with a selection of clear calls. Calls come from the whole dose curve; as a rule, active = well fitted inhibition curve with a large enough effect; inconclusive = small, poorly fitted or top-dose-only effect; inactive = flat fitted curve, though single readings scatter. Potencies of inconclusive entries are left out as doubtful fits.

Experiment: qHTS for Inhibitors of human tyrosyl-DNA phosphodiesterase 1 (TDP1): qHTS in cells in absence of CPT; note: nearly all actives have a fitted effect of over 55% in size
Details: DT40 Tdp1-/- hTDP1 cells, no CPT, ATP luminescence, 48 h; series mostly up to 46.2 µM
Outline: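 No-CPT arm: Tdp1-/-;hTDP1 DT40 cells (400/well) plus compounds, incubated ≥48 hr at 37 °C. Readout CellTiter-Glo luminescence.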
Potency is the fitted concentration of half-maximal effect; tags give direction and shape of the fitted curve.

| Structure (SMILES) | Potency |
| --- | --- |
| C=C1C(=O)[C@]23C[C@H]1CC[C@H]2[C@]1(C)[C@@H](OC(C)=O)CC[C@@](C)(C(=O)O)[C@H]1C[C@@H]3OC(C)=O | active: 4.11 µM |
| O=C(c1cnc(N2CCCCC2)c2ccccc12)N1CCN(c2ccccc2F)CC1 | inconclusive [inhibitor, single point] |
| C=CCn1c(SCC(=O)c2ccc(CNC(C)=O)o2)nc2scc(C3CC3)c2c1=O | inconclusive [inhibitor, single point] |
| COc1ccc(S(=O)(=O)N(C)C)cc1NCC(=O)Nc1cccc2ccccc12 | inactive |
| Oc1ccccc1NCC(O)Cn1ccc2ccccc21 (centres undefined) | active: 20.6 µM |
| COc1cccc(C2c3[nH]c4ccccc4c3C[C@H]3C(=O)N(C4CC4)CC(=O)N23)c1 (some centres undefined) | inconclusive [inhibitor, single point] |
| CCCSc1oc(-c2cccs2)nc1S(=O)(=O)c1ccc(Cl)cc1 | inconclusive [inhibitor, single point] |
| O=C(Nc1ccc(F)cc1)c1cc(-c2ccccn2)nc2c(Cl)cccc12 | inactive |
| O=C(c1ccco1)N1CCN(C2c3ccccc3-c3ccccc32)CC1 | inconclusive [inhibitor, single point] |
| O=C(NC1CCCCC1)C(c1ccccc1)N(C(=O)c1cccs1)c1ccc2c(c1)OCO2 (centres undefined) | inconclusive [inhibitor, partial curve] |
| CC(C)COC(=O)/C(C#N)=C/c1c[nH]c2ccccc12 | inconclusive [inhibitor, single point] |
| CC(=O)N1CCc2cc(CNS(=O)(=O)c3ccc(Br)s3)ccc21 | active: 20.6 µM |
| CC(C)NS(=O)(=O)c1ccc(OCC(=O)NCc2ccc3c(c2)OCO3)c(Cl)c1 | inconclusive [inhibitor, single point] |
| Cc1ccc(NC(=O)COc2ccc(/C=N/NC(=O)CSCc3ccccc3)cc2)cc1 | inconclusive [inhibitor, single point] |
| O=C(NCCc1ccc(Cl)cc1)c1ccc(Cn2c(=O)c3cccn3c3cccnc32)cc1 | active: 14.6 µM |
| CC1CCCN(Cc2cn3c(-c4cccc(Br)c4)nnc3s2)C1 (centres undefined) | inconclusive [inhibitor, single point] |
| CCOC(=O)n1c(=O)n(C)c2ccc(Cl)cc21 | inconclusive [inhibitor, single point] |
| NC(=O)COC(=O)c1cc(Cl)cc(Cl)c1N | inactive |
| CCOC(=O)c1ccccc1NC(=O)c1ccc(NS(C)(=O)=O)cc1 | inconclusive [inhibitor, partial curve, poor fit] |
| O=C/C=C/c1c(-c2ccccc2)cc2oc3ccccc3cc1-2 | active: 18.4 µM |
| COc1ccc2nc(/N=C(\N)NC(=O)C(C)(C)C)nc(C)c2c1 | inconclusive [inhibitor, single point] |
| CCOc1ccc(C(=O)NCCc2sc3nc(-c4ccc(Cl)cc4)nn3c2C)cc1OCC | inconclusive [inhibitor, partial curve] |
| CC1CCN(S(=O)(=O)c2ccc(NC(=O)CN3C(=O)NC(C)(c4ccccc4)C3=O)cc2)CC1 (centres undefined) | inconclusive [inhibitor, partial curve] |

| Structure (SMILES) | Potency |
| --- | --- |
| CCc1c(-c2cccc(Cl)c2)ncn1Cc1cccc(-c2ccccc2)c1 | inconclusive [inhibitor, single point] |
| COc1ccc(O)c(/C=N/N=C2/C(=O)Nc3ccccc32)c1 | inconclusive [inhibitor, single point] |
| Cc1cccc(C2=NN(c3ccccc3)[C@@H](C(=O)N3CCOC3=O)[C@@H]2C)c1 | inconclusive [inhibitor, single point] |
| Nc1nnc(-c2ccc(Cl)cc2)s1 | inactive |
| O=C(C1CCCN(c2ncnc3c2nc2n3CCCCC2)C1)N1CCN(c2ccc(F)cc2)CC1 (centres undefined) | inconclusive [inhibitor, partial curve] |
| CNC(=O)c1cc2c(-c3ccccc3)nn(C)c2s1 | active: 20.6 µM |
| COc1ccc(OC)c(NS(=O)(=O)c2cccs2)c1 | inactive |
| NC(=O)N1N=C2/C(=C/c3ccccc3)CCCC2C1c1ccccc1 (centres undefined) | inconclusive [inhibitor, partial curve] |
| COc1ccccc1C(=O)NC(=O)Nc1ccc(-c2cc(C(F)(F)F)nn2-c2ccccc2)cc1 | active: 4.61 µM |
| CC(CC(C)C(=O)Nc1ccccc1C(C)(C)C)C(=O)O (centres undefined) | inactive |
| CCOc1ccc2c(c1)NC(c1ccc(OCC)c(OCC)c1)=NC(c1ccc(F)cc1)=N2 | inconclusive [inhibitor, single point] |
| COc1ccc(N2CCN(C(=O)c3[nH]c4ccc(OC)cc4c3C)CC2)cc1 | inconclusive [inhibitor, single point] |
| COc1ccccc1N(Cc1ccccc1)S(=O)(=O)c1cccc(C(=O)Nc2ccccn2)c1 | inconclusive [inhibitor, single point] |
| CCc1ccc(N(CC)C(=O)c2cn(C)c(=O)c3cc(OC)c(OC)cc23)cc1 | inconclusive [inhibitor, single point] |
| CC1(C)CC(=O)C=C(c2ccc(Oc3ccccc3)cc2)C1=O | inconclusive [inhibitor, single point] |
| Cc1ccc(-c2csc(NS(=O)(=O)c3cccc(F)c3)n2)o1 | inactive |
| CCc1ccc(C(=O)c2cn(CC(=O)Nc3ccc4c(c3)OCO4)c3ccc(Cl)cc3c2=O)cc1 | inconclusive [inhibitor, single point] |
| Cc1cccc(C)c1OCCn1nc(C(=O)O)c2ccccc2c1=O | inconclusive [inhibitor, partial curve] |
| CC(C)C(O)(C#CCN1CCCCCC1)c1ccccc1 (centres undefined) | inconclusive [inhibitor, single point] |
| COc1cc(C(=O)NC(=S)NNC(=O)c2cnccn2)cc(OC)c1OC | inconclusive [inhibitor, single point] |
| COc1ccccc1Nc1nc(-c2sc(NC(=O)c3ccccc3)nc2C)cs1 | inconclusive [inhibitor, single point] |
| Cc1ccc(Cl)cc1NS(=O)(=O)c1ccc(-n2cccn2)cc1 | inactive |
| Cc1ccc(NC(=O)Cn2nc(C(F)(F)F)c3c2CCCC3)cc1 | inactive |

| Structure (SMILES) | Potency |
| --- | --- |
| COC(=O)c1c(NC(=O)C2COc3ccccc3O2)sc2c1CCN(C(C)=O)C2 (centres undefined) | inconclusive [inhibitor, single point] |
| Cc1cccc(-n2ncc3c(=O)[nH]c(SCC(=O)NCCC4=CCCCC4)nc32)c1 | inactive |
| CCNc1ncc2nc(C)c(=O)n(Cc3cccc(OC)c3)c2n1 | inconclusive [inhibitor, single point] |
| Cn1ncc(Cl)c1C(=O)NC(=S)Nc1sc2c(c1C#N)CCCCC2 | inconclusive [inhibitor, single point] |
| CC1=C(C(=O)N2CCOCC2)CC(CC(=O)NCc2cccc3ccccc23)C(=O)N1Cc1ccc(C(C)(C)C)cc1 (centres undefined) | inconclusive [inhibitor, single point] |
| Fc1ccc(CSc2nncn2NC/C=C/c2ccccc2)cc1 | inconclusive [inhibitor, single point] |
| CN1C(=O)/C(=C/c2ccccc2F)Sc2ccc(C(=O)N3CCCC3)cc21 | inconclusive [inhibitor, single point] |
| CN1C(=O)N(CN2CCCCC2)C2C1N(C)C(=O)N2CN1CCCCC1 (centres undefined) | inconclusive [inhibitor, partial curve, poor fit] |
| O=C(COC(=O)c1ccc(F)cc1)NCc1ccc(F)cc1 | inactive |
| Cc1ccc(S(=O)(=O)N2CCCc3cc(NC(=O)c4ccc(Cl)cc4)ccc32)cc1 | inconclusive [inhibitor, single point] |
| CCOc1ccc(NC(=O)CSc2n[nH]c(=O)n2-c2ccccc2)cc1 | inactive |
| CCn1c(CNC(=O)c2ccc(OC)cc2)nnc1SCC(=O)Nc1cccc(C)c1 | inactive |
| Cc1onc(-c2ccccc2)c1C(=O)N/N=C/c1ccc([N+](=O)[O-])s1 | active: 13 µM |
| C=CCN1CCN(C(c2ccc(Cl)cc2)c2nnnn2CCc2ccc(OC)c(OC)c2)CC1 (centres undefined) | inconclusive [inhibitor, single point] |
| NC(=S)NCCC[C@H](N)C(=O)O | inactive |
| COc1cccc(-c2cc(NCc3cccnc3)ncn2)c1 | inactive |
| CC1CCN(C(=O)CSc2nnc3ccc(-c4cccnc4)nn23)CC1 | inactive |
| CC1(OC(=O)C2CCCC2)C(=O)C=C2C=C(c3ccsc3)N(CCc3c[nH]c4ccccc34)C=C2C1=O (centres undefined) | inconclusive [inhibitor, single point] |
| CC1(C)CC(=O)C=C(C(=O)N2CCCC(C(=O)c3cccc(C(F)(F)F)c3)C2)O1 (centres undefined) | inconclusive [inhibitor, single point] |
| COc1ccccc1NC(=O)c1cc2cc3ccc(OC)c(Cl)c3nc2s1 | inconclusive [inhibitor, single point] |
| COc1ccc(C(O)c2nc(-c3ccc(Cl)cc3)cs2)cc1 (centres undefined) | inconclusive [inhibitor, single point] |
| N#Cc1nc(-c2ccc(F)cc2)oc1N1CCC(C(N)=O)CC1 | inactive |
| O=C(Nc1ccccc1[N+](=O)[O-])C1C(c2ccccc2)=C1c1ccccc1 | inconclusive [inhibitor, partial curve] |
